Test results from paper PMC4336329 (PLoS ONE, 2015).
The campaign covered roughly 310,000 compounds. About 2,200 (0.71%) showed an effect of 50% or more. Effects have a minus sign here. The list shows a part of the results.

target: human ether-à-go-go-related gene (hERG) potassium channel (human, UniProt Q12809); assay: primary screen, population patch clamp on CHO cells stably expressing hERG
Sequence (Q12809 whole entry, looked up): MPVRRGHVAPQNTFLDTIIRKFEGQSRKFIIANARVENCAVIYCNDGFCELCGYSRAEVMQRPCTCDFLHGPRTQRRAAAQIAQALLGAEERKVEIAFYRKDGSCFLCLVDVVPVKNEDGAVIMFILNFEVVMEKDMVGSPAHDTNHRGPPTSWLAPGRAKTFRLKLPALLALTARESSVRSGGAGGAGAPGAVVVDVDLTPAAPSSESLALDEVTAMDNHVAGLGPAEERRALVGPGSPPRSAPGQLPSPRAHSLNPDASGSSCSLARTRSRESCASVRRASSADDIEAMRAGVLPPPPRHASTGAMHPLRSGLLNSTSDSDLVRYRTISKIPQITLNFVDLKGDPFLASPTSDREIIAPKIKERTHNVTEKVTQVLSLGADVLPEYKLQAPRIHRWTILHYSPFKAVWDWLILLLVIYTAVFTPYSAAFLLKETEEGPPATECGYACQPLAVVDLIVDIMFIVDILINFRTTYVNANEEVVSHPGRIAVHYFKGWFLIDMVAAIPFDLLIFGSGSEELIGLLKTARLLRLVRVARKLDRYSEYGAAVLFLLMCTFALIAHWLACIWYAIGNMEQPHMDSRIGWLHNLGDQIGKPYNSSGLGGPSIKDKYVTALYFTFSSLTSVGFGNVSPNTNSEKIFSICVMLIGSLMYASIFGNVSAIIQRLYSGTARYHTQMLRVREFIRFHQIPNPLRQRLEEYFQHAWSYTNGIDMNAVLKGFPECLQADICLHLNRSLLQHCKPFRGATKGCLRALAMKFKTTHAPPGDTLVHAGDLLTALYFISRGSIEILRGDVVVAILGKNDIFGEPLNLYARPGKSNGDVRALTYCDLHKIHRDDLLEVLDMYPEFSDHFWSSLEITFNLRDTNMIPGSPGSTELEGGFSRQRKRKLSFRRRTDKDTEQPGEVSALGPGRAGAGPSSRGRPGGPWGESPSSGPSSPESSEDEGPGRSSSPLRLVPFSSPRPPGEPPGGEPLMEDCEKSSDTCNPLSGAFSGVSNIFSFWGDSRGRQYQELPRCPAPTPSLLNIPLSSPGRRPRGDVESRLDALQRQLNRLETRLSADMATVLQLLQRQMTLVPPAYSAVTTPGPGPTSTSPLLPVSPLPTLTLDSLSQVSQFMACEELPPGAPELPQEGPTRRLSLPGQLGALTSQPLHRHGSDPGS

Going from Cc1ccc(NC(=S)N(Cc2cccc(Br)c2)CC2CCC(C(=O)O)CC2)cc1 (stereo not drawn) to CC(=O)Nc1ccc(-c2csc(NCc3ccccc3)n2)cc1, the “hERG current change (%, negative = inhibition) at 1uM” value rises from 2.17% to 11.8%.

Compared with CC(=O)Nc1ncc(Cc2cc(Cl)ccc2Cl)s1, Cn1cccc1C(=O)N/N=C/c1c(Cl)cccc1Cl is lower in “hERG current change (%, negative = inhibition) at 1uM” value: 8.27% for the first, 5.63% for the second.

First: Cc1cc(NS(=O)(=O)c2ccc(NC(=O)c3cnc4scc(C)n4c3=O)cc2)nc(C)n1
Second: COC(=O)c1ccc(NS(=O)(=O)c2cc3c4c(c2)CCN4C(=O)CC3)cc1
The “hERG current change (%, negative = inhibition) at 1uM” value of the first is lower: -0.404% for the first, 3.99% for the second.

First: COCCNC(=O)C(c1ccc(C)cc1)N(C(=O)CCC(=O)Nc1ccccn1)c1cccc(C)c1 (stereo not drawn)
Second: Cc1ccc(C)c(NC(=O)C(OC(=O)c2ccc(NC(=O)CC#N)cc2)c2ccccc2)c1 (stereo not drawn)
The “hERG current change (%, negative = inhibition) at 1uM” value of the first is higher: 10.3% for the first, 4.96% for the second.

Going from CC(C)(CO)Nc1ncnc2onc(-c3ccc(F)cc3)c12 to Cc1cc(NC(=O)CCCC(=O)Nc2ccc(F)cc2)no1, the “hERG current change (%, negative = inhibition) at 1uM” value falls from 18.2% to 2.13%.

Compared with Cc1cc(N/C(=N/S(=O)(=O)c2cc(F)ccc2F)c2ccccc2)n(-c2ccccc2)n1, COC(=O)C1=C(c2ccccc2OCc2ccccc2)C[C@@H]2CC[C@H]1N2C(=O)NCCc1ccc(F)cc1 is higher in “hERG current change (%, negative = inhibition) at 1uM” value: 8.99% for the first, 11.4% for the second.

First: CCCC12CN3CN(C1)CC(CCC)(C3)C2O (stereo not drawn)
Second: O=C(CC12CC3CC(CC(C3)C1)C2)NCc1ccco1
The “hERG current change (%, negative = inhibition) at 1uM” value of the first is lower: 0.683% for the first, 10.2% for the second.

First: COc1ccc(N=C2C(=O)Nc3ccc(C)c(Br)c32)cc1
Second: COc1ccc(C(=O)COC(=O)c2cc(=O)[nH]c3ccccc23)c(OC)c1
The “hERG current change (%, negative = inhibition) at 1uM” value of the first is higher: 11.3% for the first, 7.57% for the second.

First: CCCC(=O)c1cc2c(cc1NC(=O)c1ccccc1F)OCCO2
Second: CCN(CC)S(=O)(=O)c1ccc(N2CCOCC2)c(NC(=O)c2cccc3ccccc23)c1
The “hERG current change (%, negative = inhibition) at 1uM” value of the first is lower: 10% for the first, 16.9% for the second.

Going from Oc1ccc(/C=N/n2c(COc3ccccc3)n[nH]c2=S)c(O)c1 to O=C(OCCN1C(=O)c2ccccc2C1=O)c1cccc(OC(F)F)c1, the “hERG current change (%, negative = inhibition) at 1uM” value falls from 9.31% to 5.04%.

First: COc1cccc(NC(=O)CN2C(=O)CSc3nc(C)cc(C)c32)c1
Second: C=CCn1cccc(C(=O)Nc2cc(OC)cc(OC)c2)c1=O
The “hERG current change (%, negative = inhibition) at 1uM” value of the first is higher: 12.7% for the first, 0.758% for the second.

Going from O=C(Cc1ccccc1)Nc1ccc(N2CCN(Cc3ccccc3F)CC2)cc1 to O=C(Cn1[nH]c(=O)c2ccccc2c1=O)Nc1ccc(-c2nnc3n2CCCCC3)cc1, the “hERG current change (%, negative = inhibition) at 1uM” value rises from 7.89% to 15.1%.

Going from Cc1nc2c(C#N)cnn2c2c1CCNN2C to COC(=O)CSc1nc2nc(C)c(Br)cc2[nH]1, the “hERG current change (%, negative = inhibition) at 1uM” value falls from 8.06% to 3.44%.

First: COc1ccc(O)c(/C=N/NC(=O)CN2CCS(=O)(=O)CC2)c1
Second: O=C1NCCCC1C(=O)N/N=C/c1cccc(O)c1 (stereo not drawn)
The “hERG current change (%, negative = inhibition) at 1uM” value of the first is higher: 15.5% for the first, 15.1% for the second.

First: COc1cc(C)ccc1OCCCOc1c(Cl)cccc1Cl
Second: CCOC(=O)/C(C#N)=C/c1ccc(OCC(=O)Nc2ccc(OC)cc2)c(OC)c1
The “hERG current change (%, negative = inhibition) at 1uM” value of the first is higher: 16.2% for the first, 16.1% for the second.

Going from CCCc1cc(C(=O)NNC(=S)NC2CCCCC2)cs1 to COc1ccc(NC(=O)C2CCN(C(=O)NC3CCCCC3)CC2)c(OC)c1, the “hERG current change (%, negative = inhibition) at 1uM” value falls from 8.84% to -32.6%.

Going from CCn1cc(CN2CCN(Cc3cccc(OC)c3)C(CCO)C2)c(C)n1 (stereo not drawn) to Cc1ccc(C(=O)N2CCCC(CCC(=O)N3CCN(c4ccccn4)CC3)C2)cc1C (stereo not drawn), the “hERG current change (%, negative = inhibition) at 1uM” value falls from 5.38% to -1.03%.

Compared with O=C(NCc1ccco1)C1CCN(Cc2ccc(F)cc2)CC1.O=C(O)C(=O)O, NC(=O)C1CCN(C(=O)C(Cc2ccccc2)NC(=O)c2ccccc2)CC1 (stereo not drawn) is higher in “hERG current change (%, negative = inhibition) at 1uM” value: 2.34% for the first, 13% for the second.

Compared with O=C(c1sc2cc([N+](=O)[O-])ccc2c1Cl)N1CCOCC1, O=C(CCn1c(=O)oc2ccc(Cl)cc21)NCCCN1CCOCC1 is higher in “hERG current change (%, negative = inhibition) at 1uM” value: 0.235% for the first, 12.1% for the second.

Compared with CCN(CC)CCCNC(=S)N(Cc1cccnc1)Cc1cc2cc(C)cc(C)c2[nH]c1=O, Cc1ccc(C)c(C(=O)COC(=O)c2nn(C)c(=O)c3ccccc23)c1 is lower in “hERG current change (%, negative = inhibition) at 1uM” value: 15.4% for the first, -3.71% for the second.

First: O=C1CCCC2=C1C(c1cccs1)n1ncnc1N2 (stereo not drawn)
Second: O=C1NC(c2cccs2)Nc2sc3c(c21)CCCC3 (stereo not drawn)
The “hERG current change (%, negative = inhibition) at 1uM” value of the first is higher: 12.3% for the first, 8.51% for the second.

Going from [O-][n+]1onc2c1CCc1nnccc1-2 to O=C1CCCC(O)=C1N=Nc1ccc(C(=O)O)cc1, the “hERG current change (%, negative = inhibition) at 1uM” value falls from 13.4% to 9.28%.

Going from CC(C)(C)c1ccc(C(=O)NN2C(=O)CSC2=S)cc1 to CC(OC(=O)c1ccc(C(C)(C)C)cc1)C(=O)NC1CCCCC1C (stereo not drawn), the “hERG current change (%, negative = inhibition) at 1uM” value rises from 12.1% to 17.2%.

Going from Cc1ccc(NC(=O)c2ccc(CSc3ccccn3)cc2)c(O)c1 to Cc1ccc(CNC(=O)c2cc(=O)c3ccccc3o2)cc1, the “hERG current change (%, negative = inhibition) at 1uM” value falls from 15.7% to 13.5%.

Compared with CCOc1ccc(CNc2ccc3c(c2)ncn3C)cc1, CCc1ccc(-c2cnc3nc[nH]c(=O)c3n2)cc1 is higher in “hERG current change (%, negative = inhibition) at 1uM” value: -26.9% for the first, 11.5% for the second.

First: N#CCNc1ccc([N+](=O)[O-])cc1C#N
Second: O=[N+]([O-])c1cc(Cl)ccc1Nc1ccccc1
The “hERG current change (%, negative = inhibition) at 1uM” value of the first is higher: 12.6% for the first, 9.54% for the second.

Going from CC1(C)CC(=O)C=C(c2cccc3c2Oc2ccccc2S3)C1 to O=C1OCC2=C1C(c1ccccc1)CC(=O)N2c1cccc(F)c1 (stereo not drawn), the “hERG current change (%, negative = inhibition) at 1uM” value falls from 17.2% to 7.95%.

Going from CC(C)n1cc(C(=O)NC2CC(C)(C)Cc3c2cnn3-c2ccccc2)cn1 (stereo not drawn) to COC(=O)c1cccnc1SCc1ccccc1, the “hERG current change (%, negative = inhibition) at 1uM” value falls from 26.4% to -4.64%.

Compared with C=CCSc1nnc(-c2ccc(Cl)cc2Cl)o1, Cc1ccccc1CSc1nnc(-c2cnccn2)n1C is higher in “hERG current change (%, negative = inhibition) at 1uM” value: 7.32% for the first, 18% for the second.

Compared with O=C(CN1CC(=O)Oc2ccccc21)OCC(=O)c1cccc(Br)c1, CCc1ccccc1NC(=O)CN1C(=O)c2ccccc2S1(=O)=O is lower in “hERG current change (%, negative = inhibition) at 1uM” value: 17.3% for the first, 15.1% for the second.

First: Cc1sc2nc(CSc3nc4ccccc4c(=O)n3CCCN3CCOCC3)[nH]c(=O)c2c1C
Second: CCCSc1nc(O)c(C2OC(=O)c3c2ccc(OC)c3OC)c(=O)n1C (stereo not drawn)
The “hERG current change (%, negative = inhibition) at 1uM” value of the first is lower: 0.687% for the first, 10% for the second.

First: O=C(COC(=O)Cc1ccc(Br)cc1)NCC1CCCCC1
Second: Cc1ccc(NC(=O)CC2CCCC2)c(Br)c1
The “hERG current change (%, negative = inhibition) at 1uM” value of the first is lower: 6.1% for the first, 11.4% for the second.

First: COC(=O)c1ccc(C2C3=C(Nc4nnnn42)c2ccccc2OC3)cc1 (stereo not drawn)
Second: COc1ccccc1C(=O)Nc1ccc(Br)c2cccnc12
The “hERG current change (%, negative = inhibition) at 1uM” value of the first is lower: 8.93% for the first, 17.5% for the second.

Compared with CCOC(=O)C1CCN(C(=O)CN2C(=O)c3ccccc3S2(=O)=O)CC1, N#C/C(=C\c1ccccc1)C(=O)N1CCC(C(N)=O)CC1 is higher in “hERG current change (%, negative = inhibition) at 1uM” value: 5.61% for the first, 15.5% for the second.

First: Cc1cc(C(C)(C)C)oc1C(=O)N(CC(=O)NC1CCCC1)c1cccc(C(F)(F)F)c1
Second: CN(C(=O)CCS(=O)(=O)c1ccc2c(c1)oc(=O)n2C)C1CCCCC1
The “hERG current change (%, negative = inhibition) at 1uM” value of the first is higher: 14.8% for the first, 6.38% for the second.

First: CC(=O)NCCCc1nc2ccccc2n1Cc1c(F)cccc1Cl
Second: Cn1c(SCC(=O)N2CCCc3ccccc32)nnc1-c1cccs1
The “hERG current change (%, negative = inhibition) at 1uM” value of the first is lower: -10.6% for the first, -2.76% for the second.

Going from C=CCCCCCCCCc1nc(SCC(=O)O)n[nH]1 to COC(=O)c1ccccc1NC(=O)CSc1nnnn1CC(=O)O, the “hERG current change (%, negative = inhibition) at 1uM” value rises from 5.52% to 14.2%.

Compared with Cc1cc(C)nc(SCCS(=O)(=O)Cc2ccccc2)n1, COCCNC(=O)C(OC(=O)c1cccs1)c1ccccc1 (stereo not drawn) is higher in “hERG current change (%, negative = inhibition) at 1uM” value: 6.71% for the first, 13.5% for the second.

First: COc1cccc(/C=N/Nc2nc(Nc3ccc([N+](=O)[O-])cc3)nc(N3CCCC3)n2)c1O
Second: COc1cc(C(=S)N2CCN(c3ccccc3Cl)CC2)cc(O)c1O
The “hERG current change (%, negative = inhibition) at 1uM” value of the first is higher: 15.3% for the first, 4.08% for the second.

First: CCOC(=O)c1cc(NC(=O)Cc2ccc(S(=O)(=O)N3CCOCC3)s2)cc(C(=O)OCC)c1
Second: CCOC(=O)c1c(CN(CC)CC)n(C)c2cc(Br)c(O)cc12.Cl
The “hERG current change (%, negative = inhibition) at 1uM” value of the first is higher: 2.08% for the first, -45% for the second.

First: CC(=O)C1C(c2ccc3ncccc3c2)NC(=O)NC1(O)C(F)(F)F (stereo not drawn)
Second: O=C1CCC(C(=O)Nc2cc(C(F)(F)F)ccc2-n2cncn2)=NN1
The “hERG current change (%, negative = inhibition) at 1uM” value of the first is higher: 9.58% for the first, 7.98% for the second.

First: O=C(NC(=S)NCC1CCCO1)c1cccc([N+](=O)[O-])c1 (stereo not drawn)
Second: N#Cc1c(N2C(=O)c3ccc(C(=O)O)cc3C2=O)sc2c1CCCC2
The “hERG current change (%, negative = inhibition) at 1uM” value of the first is lower: 5.69% for the first, 18.6% for the second.

Compared with CCc1ccc(C(N)=S)cc1, CN(C)c1ccc(C(=O)/C=C/c2ccccc2)cc1 is lower in “hERG current change (%, negative = inhibition) at 1uM” value: 10.2% for the first, 8.84% for the second.

Going from Nc1ccc(OCCCc2c(N)nc(N)nc2N)cc1 to O=c1c2[nH]c3ccccc3c2ncn1Cc1ccco1, the “hERG current change (%, negative = inhibition) at 1uM” value rises from 9.01% to 19.8%.

First: CCCCC(C)n1[nH]c(=O)c2c(C)cc(C)nc21 (stereo not drawn)
Second: COc1cc(NC(=O)Nn2cnnc2)cc(OC)c1OC
The “hERG current change (%, negative = inhibition) at 1uM” value of the first is lower: 1.59% for the first, 11.7% for the second.

Going from O=C(CN1C(=O)NC2(CCCCC2)C1=O)N1CCN(C(=O)c2cccs2)CC1 to CCc1nnc(NC(=O)C2CCC2)s1, the “hERG current change (%, negative = inhibition) at 1uM” value rises from -1.87% to 3.46%.

With N/C(CCN1CCOCC1)=N/O the “hERG current change (%, negative = inhibition) at 1uM” value was 16.7%.
